Laboratory results taken from the RNAGym collection of RNA variant scans (doi:10.7554/elife.90254).
Read counts are not given, so values of variants with three or more changes are uncertain.

B1: OR4K15 (parent)
chain: GUUAACGGUCAUAGGCCAUGGAAACUAGGAGCACCAUUUCGCUGCCAGUGAAGAAAUGAACAAAGAAAAUCUGGGCCAGGCAGGCAUCAAAAGAAAUAGUCUUGCGCUCAACCAGAAAGUCUGUAAUCAUUUUAAGGGUA

Variants of: B1
Experiment: self-cleavage, relative activity (ratio to wild type); higher = more cleavage; in vitro, sequencing; the parent is a self-cleaving ribozyme

Row | Variant | self-cleavage
1 | A47G A86G U132A | 0.48
2 | G44A A47G A55G U130C | 1.77
3 | U43C A51G A90G | 0.84
4 | A47C G50A A82G A89C | 0.27
5 | U43C A47U A96G | 1.26
6 | C42U A110U A117G | 1.91
7 | U43A A47G A118G | 0
8 | U43C U70C A95G | 0.41
9 | A47U A51G A96G U122C | 0.28
10 | U43A A62G A89C A92G A111G | 0
11 | U43C C77U A94G U124A | 0.76
12 | C42U A55G A68G U122C | 1.14
13 | U43C A47G A60G | 1.51
14 | G44A U57C U87C U122C | 0.42
15 | U43C U102G A110U U131C | 0.22
16 | U43C U49A A92G A98C | 1.28
17 | A47G A59U A67G U120A | 1.12
18 | A47U A55G U120C | 0.28
19 | U43C A67G U72A A91G A92G | 0.17
20 | U43C A118G A125G A129G | 0.07
21 | U43C A54G A91U A117G | 1.58
22 | U43C A69G A95G A116U | 0.61
23 | A47U A60G A62G U108C | 0.01
24 | U43C A52G A116G | 0.82

Row | Variant | self-cleavage
25 | U43A A59G A89U A92G A94G | 1.24
26 | A47G A82G A117G | 0.88
27 | U43C A66G U87C A114G | 0.03
28 | G44A A59G A96G U102C A110G A117C A134G | 0.08
29 | A47G A51U U132A | 0.6
30 | A47G U102C A129G | 1.59
31 | U43A A51G A110G | 0.08
32 | U43C A67U A111G | 0.02
33 | U43G A66U C113U | 0.07
34 | U43A A55G A96G | 2.25
35 | U43C U87A A90G | 0.09
36 | U43C A59G U100C U102C | 2.15
37 | U43A A94G U102C | 1.86
38 | G44A A60G A68U | 1.23
39 | U43C A51U A68G A110G | 0.13
40 | U43C A67G U72C A78G U87A U103A G136A A140G | 0.04
41 | U43C A52G G80A A82U G93C | 0.2
42 | C45U A98G U122C A125G | 0.14
43 | U43C A52G A59U A68G | 0.9
44 | U43A A114G U130C | 0.08
45 | U43C A67G U103C | 0.86
46 | C45A A68G A78G A89G | 0.29
47 | C42U A98G U120C | 0.26
48 | U43C A86G A110G A140U | 0.12

Row | Variant | self-cleavage
49 | C42A A91G U100C | 2.47
50 | A47G A51U A114G U132C | 0.12
51 | A47G A92G U103C | 0.18
52 | U43C A47G A52G A94G A117G A129G | 0.43
53 | A47G A59G A111U A118U | 0.01
54 | C45A A51G U103A | 0.74
55 | U43C U102C A140G | 1.09
56 | U43C A92G U103C | 0.4
57 | A47G A95G A96G | 0.94
58 | G41A G44U A47G A54C A60G | 1.06
59 | U43C A78U A91G | 0.09
60 | U43C U100C U108C A117U | 0.02
61 | U43C U87A U124A | 0.62
62 | A47U A67G U127C U139A | 0.23
63 | U43A A67G A117G A140U | 1.1
64 | C42U A54G A92C A96G A116G U124A | 0.76
65 | U43C A54G A62C U102A | 0.65
66 | U43C A47U A82G U120C | 0.11
67 | U43A A55G A60G A89U A125G | 0.69
68 | U43C A64G A111C | 0.02
69 | A47U A54G A68G A78G U102C A117G | 0.23
70 | A47G U131C G137A | 0.49
71 | A47G U124C U132C | 0.26
72 | A47G G74U U87C | 0.07

Row | Variant | self-cleavage
73 | U43C A51U A68G A92G A116U U132C | 0.09
74 | G41U A126G A129U | 0.59
75 | A47G U70C A78G | 0.21
76 | U43A A52G U127A | 2.1
77 | U43C A68U A78U U122A | 0.14
78 | A47G A64U A66U A89U | 1.14
79 | G44A U49C A66G U132C | 0.6
80 | U43A G65A A86G U102C U108A A118U | 0.02
81 | U43A A47G A78U A91G | 0.16
82 | C46U A82G A118G U132C | 0.53
83 | U43C U103C U108C | 0
84 | C42G A114G U131C | 0.07
85 | U43C A51G A64G U127C U131A | 1.42
86 | G44C A63U U132C | 2.38
87 | G44C A78G U139C | 0.24
88 | A47G A125U A135G | 0.33
89 | U43C A51G U127C | 1.1
90 | U43G A64G A117G U130A U131G | 2.85
91 | U43C A55G A67G | 1.78
92 | C46A U72A G84U | 0.04
93 | U43C A114U U127C C128U U133C | 0
94 | U43A U57C U72G G75A | 0.19
95 | U43A A63U A89G | 2.31
96 | U43C A51G A126G | 1.14

Row | Variant | self-cleavage
97 | G44A U72A A89U A94G A95G U131C | 0.03
98 | C46U A78U A82G A95C G115A | 0
99 | U43C A56G A82G A95G A117G U127A | 1.63
100 | A47U A56G U108C A126G | 0
101 | U43C A92G A126G | 0.34
102 | U43A U87C A89U | 1.74
103 | A47G G75U A126G | 0.06
104 | A47G A55G A96G A116G | 0.22
105 | U43A A64G A67G A82G | 0.57
106 | U43C A95G A110G | 0.16
107 | C45G A92G U100C A126G | 0.12
108 | G44U A56C A86C A89G | 0.36
109 | U43A A52G U122C | 0.49
110 | A47G C61U A118G A126G | 0.61
111 | U43A A52G A66G A118G | 0.51
112 | A47G A66G A82G A140G | 0.8
113 | U43C U87C C113U | 0.02
114 | C46U A52G U100C | 1.53
115 | A47U A62G A63G A68G A86G A111G A114G | 0.01
116 | U43A A78G U87C G119A | 0.07
117 | U43C A52G A90G | 1.34
118 | A47G A92G U108A A118G | 0
119 | U43C A51U A116U U120C | 0.03
120 | U43C A51G C77U G79U U87A A110U | 0.13

Row | Variant | self-cleavage
121 | G41A U43C A51G | 1.58
122 | A47U A51G A140G | 0.54
123 | U43C A55G A91U A95G A126G | 1.59
124 | A47G A64U G106C | 0.05
125 | A47G U70A U87C | 0.41
126 | U43A A78U A82G | 0.14
127 | U43C A64G A92G G115A | 0.02
128 | U43A A54G U139C | 2.11
129 | A47G U120C U133C | 0.97
130 | G44A A59G A60G A114U A116G A117G | 0.01
131 | G44U A52G U120C | 0.87
132 | A47G U139A A140G | 1.05
133 | G44A G79A U102C U108C U132C | 0
134 | C42G A59G U100C U132C | 2.64
135 | A47G A52U A60G | 0.53
136 | A47G A67U U108C | 0.01
137 | U43A A54U C85U | 1.73
138 | A47G G79U U87C | 0.13
139 | U43C A67G U102C | 2.15
140 | A47U A55G U131C | 0.1
141 | C45G A47U U102C | 1.36
142 | U43C A116G U127A | 1.01
143 | A47G U103C A117G U124C | 0.35
144 | A47G A78G A92G A98G U103C | 0.06

Row | Variant | self-cleavage
145 | A47U A59G A67U U122C | 0.68
146 | U43C A78U U97A | 0.4
147 | A47G A64G A78U A91G | 0.08
148 | C45U U120C U124C | 0.19
149 | U43A A94U U108C U132C | 0.01
150 | A47U A52G A59G A63G A129G U130A | 0.32
151 | A47G U87A A110G U133G A134G | 0.09
152 | U43C A60G A126G | 0.6
153 | G41C A51G A54G U139C | 1.05
154 | U43C A59G A67G U103C | 0.49
155 | C42G A94G A129G | 1.17
156 | C46A A62G A69G A86G U102C A110G | 0.11
157 | A47G U72C G84U U122A | 0.13
158 | U43C A95G U102C A118U | 1.14
159 | G44U G104A U124C | 0.02
160 | A47G A95G A140U | 1.57
161 | A47G A55G A111G | 0.03
162 | A47U A56G G73A G84A | 0.17
163 | C42U A82C A126U | 0.36
164 | U43C C45U A51G A54G | 1.97
165 | U43G A51G A66U | 0.68
166 | C46U A62U U72C U108C | 0.01
167 | A47G U49C U103C | 0.3
